The whole screen tested about 310,000 compounds, of which about 2,200 (0.71%) showed an effect of 50% or more. The effect is printed as a negative number. Some of the results follow.
Molecular target: human ether-à-go-go-related gene (hERG) potassium channel (human, UniProt Q12809)
Assay: primary screen, population patch clamp on CHO cells stably expressing hERG

Sequence of human ether-à-go-go-related gene (hERG) potassium channel (Q12809 whole entry, looked up): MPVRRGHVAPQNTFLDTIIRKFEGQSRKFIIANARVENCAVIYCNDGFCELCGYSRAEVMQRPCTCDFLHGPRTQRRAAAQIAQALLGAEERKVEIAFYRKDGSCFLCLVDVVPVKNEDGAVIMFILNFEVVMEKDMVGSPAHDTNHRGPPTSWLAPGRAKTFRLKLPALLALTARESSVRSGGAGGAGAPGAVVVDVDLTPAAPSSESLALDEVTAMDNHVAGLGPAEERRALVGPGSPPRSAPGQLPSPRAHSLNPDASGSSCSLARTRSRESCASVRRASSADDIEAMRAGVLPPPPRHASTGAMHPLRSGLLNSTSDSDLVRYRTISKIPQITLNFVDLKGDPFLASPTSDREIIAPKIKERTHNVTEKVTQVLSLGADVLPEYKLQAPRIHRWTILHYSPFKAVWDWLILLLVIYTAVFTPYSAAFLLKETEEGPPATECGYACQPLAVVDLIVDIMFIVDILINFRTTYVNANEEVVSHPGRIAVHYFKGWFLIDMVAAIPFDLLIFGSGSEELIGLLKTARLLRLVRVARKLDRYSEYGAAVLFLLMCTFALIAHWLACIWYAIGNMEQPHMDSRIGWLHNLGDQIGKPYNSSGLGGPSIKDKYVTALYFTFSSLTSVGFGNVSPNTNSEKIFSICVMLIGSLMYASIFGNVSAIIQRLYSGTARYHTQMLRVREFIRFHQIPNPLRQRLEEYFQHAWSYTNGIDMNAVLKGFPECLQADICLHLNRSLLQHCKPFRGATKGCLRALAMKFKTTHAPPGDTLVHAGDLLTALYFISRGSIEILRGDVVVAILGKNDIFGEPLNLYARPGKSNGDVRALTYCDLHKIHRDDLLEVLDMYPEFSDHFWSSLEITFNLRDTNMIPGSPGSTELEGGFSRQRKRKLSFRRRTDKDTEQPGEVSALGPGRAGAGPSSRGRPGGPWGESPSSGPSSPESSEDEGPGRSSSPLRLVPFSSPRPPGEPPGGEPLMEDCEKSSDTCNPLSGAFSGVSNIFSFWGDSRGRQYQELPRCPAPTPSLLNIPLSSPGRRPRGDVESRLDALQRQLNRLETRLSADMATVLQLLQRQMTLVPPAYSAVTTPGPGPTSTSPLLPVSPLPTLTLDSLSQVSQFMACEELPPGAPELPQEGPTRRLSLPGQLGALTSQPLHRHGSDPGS

Row | SMILES | hERG current change (%, negative = inhibition) at 1uM
1 | CCc1cc2c(COC(=O)c3cc(S(=O)(=O)N4CCOCC4)ccc3F)cc(=O)oc2cc1O | 2.42%
2 | O=C(NCCN1C(=O)S/C(=C\c2ccccc2F)C1=O)C1CCCN1C(=O)c1cccs1 (stereo not drawn) | 5.12%
3 | CCOC(=O)c1cc(C)sc1N1C(=O)C2C3C=CC(C3)C2C1=O (stereo not drawn) | 4.48%
4 | CCCc1ccc(OCc2ccc(C(=O)NN)o2)c(OC)c1 | 15.3%
5 | CC(Sc1ccccc1)C(=O)NCC1COc2ccccc2O1 (stereo not drawn) | 5.62%
6 | COCC(C)NC(=O)CSc1nc2nn(-c3ccccc3)c(=O)c-2c2n1CCCCC2 (stereo not drawn) | 14.5%
7 | CCOC(=O)C1CCN(C(=O)CCNS(=O)(=O)c2cc(Br)cnc2N)CC1 | 1.54%
8 | CC(O)CNC(=S)Nc1ccccc1 (stereo not drawn) | 4.63%
9 | COCCN1Cc2cccc(C(=O)NC3CCCCCC3)c2C1=O | 15.1%
10 | C[C@@H](CC#N)CN1CC[C@H](C(C)(C)C)CCC1=O | 3.06%
11 | CC(=O)Nc1ccc(S(=O)(=O)Nc2nccs2)cc1 | 16.2%
12 | COc1cccc(CNC(=O)CCC2CCCN(C(=O)c3ccc(F)c(Cl)c3)C2)c1 (stereo not drawn) | 2.1%
13 | O=C1NC(NS(=O)(=O)c2ccc(Cl)cc2)(C(F)(F)F)C(=O)N1Cc1cccnc1 (stereo not drawn) | 1.49%
14 | CCN(Cc1ccccc1)C(=O)Cn1c(=O)oc2ccccc21 | 20.7%
15 | Cc1cccc(C)c1NC(=O)N1C2CCCC1CC(NC(=O)C(C)(C)C)C2 (stereo not drawn) | 13.6%
16 | Nc1nonc1-n1nnc(C(=O)N/N=C/c2c(F)cccc2Cl)c1-c1ccc2c(c1)OCO2 | 13.7%
17 | Cc1ccsc1/C=N/NC(=O)C(=O)NCC(C)C | 3.1%
18 | O=C1CSC(c2cn(-c3ccccc3)nc2-c2cc3ccccc3oc2=O)N1Cc1cccnc1 (stereo not drawn) | 1.82%
19 | CC1(NC(=O)N2CCCCC2)CCS(=O)(=O)C1 (stereo not drawn) | 4.09%
20 | CN(C)/C=N/c1ncc(C(=O)c2ccc(Cl)cc2)s1 | -1.2%
21 | Cc1nc2ccc(S(=O)(=O)NC(C(=O)NCc3ccco3)C(C)C)cc2s1 (stereo not drawn) | 5.36%

Row | SMILES | hERG current change (%, negative = inhibition) at 1uM
22 | COC(=O)\C(C(C)=O)=C(/C=C/C=C/N(C)C)N(C)C | 2.95%
23 | Cc1c(NC(=O)CSc2nnc(-c3cccnc3)n2N)c(=O)n(-c2ccccc2)n1C | 4.85%
24 | Cc1ccc2nc(NCc3ccc(F)cc3)c3nncn3c2c1 | 11.3%
25 | N=C1/C(=C\c2ccc(OC(=O)c3ccccc3Cl)cc2)C(=O)N=C2SC(N3CCOCC3)=NN12 | 8.44%
26 | COc1ccc(CNC(=O)C(C)N2CCN(c3ccc(C(C)=O)cc3)CC2)cc1 (stereo not drawn) | -12.7%
27 | CC(C)c1ccc2[nH]c(O)c(N=NC(=O)c3cccc(S(=O)(=O)Nc4ccc(Cl)cc4)c3)c2c1 | 12.3%
28 | ON=C1/C(=N\O)CC2(C/C1=N/O)OCCO2 | 6.28%
29 | CC(=O)C(/C=N/c1cc(-c2ccc(C)cc2)nn1-c1ccccc1)=C(\C)O | 1.68%
30 | Cc1nn(CCCC(=O)Nc2cc(Oc3ccccc3)cc([N+](=O)[O-])c2)c(C)c1[N+](=O)[O-] | 16.2%
31 | Cc1ccc(S(=O)(=O)N[C@@H](CC(C)C)C(=O)NCc2ccco2)cc1 | 3.58%
32 | COc1ccccc1NC(=O)CNC(=O)c1ccc([N+](=O)[O-])cc1 | -0.0118%
33 | CN(CCCNC(=O)CCc1cn(C)c2ccccc12)C1CCCCC1 | 7.35%
34 | Cc1ccc(S(=O)(=O)O)cc1.NC1CCN(c2nc3c(cc2F)c(=O)c(C(=O)O)cn3-c2ccc(F)cc2F)C1 (stereo not drawn) | 17.4%
35 | CCOC(=O)N1CCN(C(=O)c2cc(-c3ccc(F)cc3)[nH]c2C)CC1 | -54.1%
36 | COC(=O)c1ccc(NC(=O)CN2CCC(NC(=O)c3ccco3)CC2)cc1 | -8.47%
37 | COc1ccc(OC)c(CN2CCN(C(=O)c3cccc(S(=O)(=O)Nc4ccc(C)cc4)c3)CC2)c1 | 7.19%
38 | COc1cc(NC(=O)c2cccc(C)c2)c(Cl)cc1[N+](=O)[O-] | 9.24%
39 | COC(=O)C(NC(=O)c1ccccc1)(Nc1nccs1)C(F)(F)F (stereo not drawn) | 7.64%
40 | Cc1cc(-c2n[nH]c(=S)n2Cc2ccccc2)cs1 | 9.2%
41 | Cn1cnnc1SCC(=O)NC1CCCC1 | -3.71%
42 | CCCCN(CC)CCCNC(=O)CS(=O)(=O)Cc1nc(-c2cccc(OC)c2)oc1C | -1.08%

Row | SMILES | hERG current change (%, negative = inhibition) at 1uM
43 | Cl.O=C(/C=C/c1cccc(F)c1)NCCCn1ccnc1 | -2.13%
44 | Cc1cc(SCC(=O)c2ccc(O)c(O)c2)n2nc(C)c(-c3ccccc3)c2n1 | 9.2%
45 | Cc1ccc(CNC(=O)CCS(=O)(=O)Cc2ccc(C)cc2)cc1 | 12.6%
46 | CN(C)S(=O)(=O)c1ccc(C(=O)N2CCCC2c2nc3ccccc3s2)cc1 (stereo not drawn) | 5.59%
47 | O=C1CSC(c2ccc(Cl)cc2)N1C1CCCCC1 (stereo not drawn) | 1.85%
48 | Cc1cccc(-c2nc3c(c(SCC(=O)N4CCOCC4)n2)COC(C)(C)C3)c1 | 5.85%
49 | O=C(Cn1ccc2ccccc2c1=O)NCC(=O)N1CCCCC1 | 21.2%
50 | Cc1ccc(NCc2ccc(C)s2)cc1 | 19.4%
51 | CN(Cc1ccc(OC(F)F)cc1)C(=O)c1ccccc1Sc1ccccc1C#N | -29.2%
52 | CCOC(=O)c1cccc(NC(=O)CNS(=O)(=O)c2cccs2)c1 | 6.79%
53 | CCCCOc1ccc(-c2c(C(=O)Nc3ccccc3)c(C)[nH]c(=S)c2C#N)cc1 | 14.5%
54 | COc1ccc(C(=O)NC2CC(C)(C)NC(C)(C)C2)cc1OC | 16.9%
55 | C=CCn1c(SCC(=O)Nc2cccnc2Cl)nnc1-c1ccc(Cl)cc1 | 1.44%
56 | CCCCNC(=O)c1c(CSc2ccccc2)noc1C(=O)NCc1ccccc1 | 23.2%
57 | Cc1cc2nn(-c3ccc(F)cc3)nc2cc1N | 13.5%
58 | CC1=C(C(=O)O)N2C(=O)C(NC(=O)Cc3ccccc3)C2SC1 (stereo not drawn) | 11.1%
59 | CC(C)NC(=O)Cn1nc(C(F)(F)F)c2c1CCC2 | 8.67%
60 | Cc1cccc(NC(=O)CN2C(=O)c3ccccc3C2=O)c1C | 1.86%
61 | O=C(O[C@H]1[C@H](Oc2ccccc2COC(=O)C2(O)C=CCCC2=O)O[C@H](CO)[C@@H](O)[C@@H]1O)c1ccccc1 (stereo partly drawn) | 9.26%
62 | Cc1ccccc1NC(=O)C1CC(=O)N(c2ccccc2F)C1 (stereo not drawn) | -2.16%
63 | COc1cc(OC)c(-c2nc3ccccc3s2)cc1OC | 2.51%

Row | SMILES | hERG current change (%, negative = inhibition) at 1uM
64 | COc1ccccc1NC(=O)CN1C(=O)NC(C)(C)C1=O | 12.6%
65 | Fc1ccccc1/C=C1\CCCC2=C1NC(=S)NC2c1ccccc1F (stereo not drawn) | 15.3%
66 | COc1cc(CNCc2ccc(C)cc2)cc(OC)c1OC.O=C(O)C(=O)O | 7.99%
67 | CC(=O)N(CN1C(=O)C2CC=CCC2C1=O)c1cccc(Cl)c1 (stereo not drawn) | 3.47%
68 | CC(=O)O[C@H]1CC(=O)OC(C)(C)C2CC(=O)[C@]3(C)C(CC[C@@](C)([C@@H](O[C@@H]4O[C@H](CO)[C@@H](O)[C@H](O)[C@H]4O)c4ccoc4)[C@@]34O[C@@H]4C(=O)O)[C@]21C (stereo partly drawn) | 13.4%
69 | COc1ccc(CC(=O)OCC(=O)Nc2c(C)n(C)n(-c3ccccc3)c2=O)cc1OC | 8.25%
70 | CCOC(=O)N1CCN(Cc2nc3cc(NC(=O)C(C)C)ccc3n2C)CC1 | 16.1%
71 | CCc1nn(CC(=O)N2CCN(c3cc(C)ccc3C)CC2)c(=O)c2cc3occc3n12 | 21%
72 | CCOc1ccc2cc(C3CC(c4ccco4)=NN3S(C)(=O)=O)c(=O)[nH]c2c1 (stereo not drawn) | 5.74%
73 | Cc1cccc(C(=O)OCC(=O)N(C)C(c2ccccc2)c2ccccc2)c1[N+](=O)[O-] | 18.1%
74 | COc1ccc(NS(=O)(=O)c2ccc(-c3cnc(C4CC4)o3)cc2)cc1OC | 15.3%
75 | CCOc1ccc(S(=O)(=O)N2CCC(C(=O)Nc3cc(S(C)(=O)=O)ccc3Cl)CC2)cc1 | 11.4%
76 | CN(CC(=O)Nc1ccc(Cl)cc1)C(=O)COc1ncnc2ccccc12 | 3.55%
77 | Cc1ccc(OCC(=O)N(Cc2ccco2)c2c(N)n(Cc3ccccc3)c(=O)[nH]c2=O)cc1C | 2.74%
78 | C=CCN1CCN(C(=O)c2oc3ccccc3c2C)CC1 | 12.5%
79 | CC(=O)Nc1ccc(S(=O)(=O)NCc2nc(-c3ccccc3Cl)no2)cc1 | 10.7%
80 | CC(NC(=O)c1cc2c(cc1Cl)N1CCCCCC1=NS2(=O)=O)c1ccc(S(N)(=O)=O)cc1 (stereo not drawn) | 21.2%
81 | N#Cc1c(NC(=O)CCCl)sc2c1CCCCC2 | 9.62%
82 | Clc1ccc(-c2cc(COc3ccc4ccccc4c3)no2)cc1 | 13.5%
83 | CCOc1ccccc1C(=O)NCc1ccco1 | 11.5%
84 | CCCCn1c(O)c(C(CC)=NCCN2CCCCC2)c(=O)[nH]c1=O | -25.7%
